# Assay results: the supplement of paper PMC3334620
# Whole data set: some 33,000 sequences, median “E-score (-0.5 to 0.5)” near -0.012, cut for the highest 2% near 0.29. The list shows a part of the results.
# Target: T1, Ybr033w (UniProt P38073)
# T1 sequence: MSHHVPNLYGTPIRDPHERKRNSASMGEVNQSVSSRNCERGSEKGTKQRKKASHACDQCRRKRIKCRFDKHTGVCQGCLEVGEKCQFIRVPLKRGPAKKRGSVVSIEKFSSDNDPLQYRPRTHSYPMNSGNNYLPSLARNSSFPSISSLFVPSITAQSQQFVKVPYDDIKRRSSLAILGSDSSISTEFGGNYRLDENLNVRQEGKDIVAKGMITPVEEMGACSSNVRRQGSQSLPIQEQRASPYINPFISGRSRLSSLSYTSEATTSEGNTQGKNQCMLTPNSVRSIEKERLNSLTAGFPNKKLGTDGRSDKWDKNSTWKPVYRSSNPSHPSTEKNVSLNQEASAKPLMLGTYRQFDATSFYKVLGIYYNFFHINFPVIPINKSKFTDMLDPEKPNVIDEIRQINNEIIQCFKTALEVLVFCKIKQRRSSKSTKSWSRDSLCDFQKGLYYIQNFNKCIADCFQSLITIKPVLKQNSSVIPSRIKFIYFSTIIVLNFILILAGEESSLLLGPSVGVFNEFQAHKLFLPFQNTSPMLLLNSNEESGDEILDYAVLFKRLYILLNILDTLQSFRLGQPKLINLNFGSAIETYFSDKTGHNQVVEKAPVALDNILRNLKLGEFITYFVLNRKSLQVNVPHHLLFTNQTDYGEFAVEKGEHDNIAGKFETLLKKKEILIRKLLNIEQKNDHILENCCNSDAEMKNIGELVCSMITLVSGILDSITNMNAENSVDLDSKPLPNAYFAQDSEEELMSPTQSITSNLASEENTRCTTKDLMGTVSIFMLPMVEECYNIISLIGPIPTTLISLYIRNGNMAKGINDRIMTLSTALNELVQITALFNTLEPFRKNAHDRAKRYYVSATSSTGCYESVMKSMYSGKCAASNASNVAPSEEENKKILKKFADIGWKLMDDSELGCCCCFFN
# Experiment: PBM E-score (8-mer binding enrichment) (E-score (-0.5 to 0.5)); higher = stronger / more preferred TF binding; most listed sequences are background and not binding sites
# Details: protein concentration: 200 nM; construct: GST-full length
# Summary of the method: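 Masliner-normalised scans of fluorescent anti-GST signal were the basis for scoring. That signal came from GST-tagged yeast transcription factors applied at about 100-200 nM to double-stranded universal all-10-mer Agilent arrays on fresh or once-stripped slides. Each ungapped eight-base word, pooled with its reverse complement, received an E-score from the Universal PBM Analysis Suite.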
row,Sequence,PBM E-score
1,ATGTGGTA,0.184
2,CGTTAGAG,-0.0131
3,GAGGACAC,-0.117
4,ACCTCCAC,-0.122
5,ACTGATCT,0.0733
6,GCGGCAAC,-0.148
7,ACATGCGA,-0.0958
8,GCTATCCA,-0.0558
9,ATTCTTAA,0.0371
10,CCGGGAAC,-0.0566
11,CAGCACTC,0.0472
12,ATCGGGTC,-0.0512
13,CCACCGGC,-0.211
14,CATCGCCG,-0.0994
15,ACCCCTTC,-0.341
16,GCGACACC,-0.198
17,GATTTTGC,0.14
18,CGTCTTTA,0.201
19,CCCTTGCC,-0.15
20,ACAAACCT,0.222
21,AATTTCAA,0.223
22,GTAAGAAC,0.132
23,CTCGTAAC,0.149
24,TATCACGA,0.0144
25,ATATAAGG,0.232

row,Sequence,PBM E-score
1,CCATCAGG,-0.25
2,GTAATATA,0.299
3,AACCTTCT,-0.108
4,CGGGCACG,-0.172
5,ACTGGGCA,-0.157
6,ACGTCGCA,-0.0609
7,GTATGCTA,0.107
8,CACCACAA,0.0945
9,CCGCTAGG,-0.112
10,GTGTCCCA,-0.239
11,AGGTCGAG,-0.0923
12,GGAGGCAA,-0.138
13,CAGCGAAC,0.0498
14,GCGCAATA,-0.197
15,GGCACATA,0.0402
16,AGAAGGGC,-0.248
17,ATCAGGGG,-0.256
18,ATCGATTC,0.0711
19,GGGCTGAA,0.0197
20,CGTTGCCA,-0.141
21,CACACACG,-0.0904
22,AGAGATAA,0.203
23,AACGCAGA,-0.0443
24,AGTTTTTC,0.295
25,CGTGGACC,-0.272

row,Sequence,PBM E-score
1,ATCGGCTG,0.0341
2,CTTCCCAC,-0.141
3,GCAACCAA,0.0127
4,TCAACGCA,-0.0376
5,GACCCTCC,-0.172
6,ATCGACGG,-0.207
7,AGAACTAA,0.193
8,GGAACACC,-0.0248
9,GACGGTGA,-0.0882
10,CCATTCGA,0.0318
11,CGTAGAGC,-0.198
12,AAGATGTA,0.224
13,CTCCGAGC,0.0566
14,CATAATTA,0.284
15,ACCCTAAT,0.138
16,ACGGGTTC,-0.144
17,GGCTCTAC,-0.185
18,TAAGACAA,0.0666
19,CCGCCGCA,-0.149
20,CGTCCACA,0.0647
21,CCCGGATA,0.125
22,CTCTCATC,-0.169
23,CGGACACC,-0.188
24,TAGTCTGA,-0.0153
25,GTCCGACA,-0.0209

row,Sequence,PBM E-score
1,GGGCGTTA,-0.108
2,AGCGGAGC,-0.208
3,CATCGGGA,0.0831
4,GGCAAATA,0.109
5,ACACCGAC,-0.0121
6,ATGATTTA,0.253
7,GTCCCATA,-0.106
8,CAGGAGGG,-0.185
9,ACCATTCC,0.0986
10,ACGGACAG,-0.284
11,CTTTGTAA,0.24
12,AAAGAACG,0.0663
13,GAGCCGGA,-0.0129
14,AGCAAGGG,-0.0359
15,AACGTACC,0.0653
16,CGTTGGAA,0.0863
17,AGTAACCG,0.109
18,CCTCCCCA,-0.137
19,AACATTGC,0.0435
20,CGTAGGGA,-0.0324
21,AACTCAGC,-0.0812
22,CAATGAAA,0.085
23,GGGATACC,-0.294
24,ATAGTGTA,0.198
25,CACAAGAA,0.236

row,Sequence,PBM E-score
1,AGTTTTCA,0.123
2,AAGCTTCT,0.0905
3,AGGATGGG,-0.138
4,AAGCAAAC,0.117
5,ACGCGAGT,-0.0289
6,AGGTCTAG,-0.173
7,AGATATAG,0.171
8,GGTCGACA,-0.147
9,CATAGCAG,-0.217
10,ACGAGCTC,-0.23
11,GATACCAC,0.066
12,TGTCTGAA,0.133
13,ACAGAGGG,-0.12
14,CCCCAGGC,-0.192
15,ATCAACCG,0.165
16,ATTGTATC,0.251
17,CTCACGGA,-0.115
18,ACACTGCC,0.186
19,ATTGGGAC,0.0397
20,GTGAATAA,0.0956
21,AGACACAA,0.121
22,CGTAAAAA,0.212
23,AGGACCCT,-0.196
24,ATGCTTTG,-0.0128
25,ATAATTAT,0.372

row,Sequence,PBM E-score
1,ATAAATGC,0.0963
2,CTTGTGCC,-0.354
3,ACCTTTCT,-0.0058
4,CCTCTACC,-0.0288
5,GGGATTAC,-0.103
6,ATTCGGCC,-0.157
7,GTCATCCA,-0.0983
8,TATGCATA,0.0884
9,CATTTAGA,0.0917
10,ACTTTCCA,0.164
11,TGGTTAAA,0.232
12,CTCAGAGA,-0.202
13,CGCACATC,-0.0563
14,CTCTCGTC,-0.165
15,AAGGAACA,0.283
16,ATATCGTG,0.0168
17,AATGGCCG,-0.193
18,GAAGTGCC,-0.102
19,CACCCCCA,-0.322
20,CGAAAGGA,0.0281
21,AAAGCACG,-0.0888
22,GCATTCTA,0.11
23,AAAGCGAG,0.0778
24,AAGACCTG,-0.231
25,GCGTGGGA,-0.227

row,Sequence,PBM E-score
1,CCAAACAC,0.0133
2,AATACCAG,0.12
3,AACCGCTG,-0.084
4,ACGTGTCC,-0.23
5,TGCGGGAA,0.159
6,AGTTATCC,0.018
7,CTAGCTGA,-0.0653
8,AAGAGAAA,0.0217
9,AGTAAGAA,0.208
10,GAAATTGA,0.289
11,GCTCAACC,-0.0689
12,GTTAAAGA,0.182
13,AATCAGGC,0.0854
14,CAGTAGCA,-0.0527
15,GATTGAGC,0.133
16,ACCCTCCT,-0.22
17,ATGGCGAG,-0.113
18,CAGCCGTA,-0.106
19,ACGTACGA,-0.182
20,AGTATGGA,0.171
21,CACGATGA,0.123
22,AGCCCGTG,-0.317
